From PMC9834212
Results are given in words; binding and its absence hold for the method and conditions named. In cells and extracts the contact can be indirect. Some entries that bind do so weakly or less than the wild type. For part of these data: Sequences can lack the tags named with a protein.

By UniProt entry, the sequences of proteins in these tests, tags left out.
UniProt P13861: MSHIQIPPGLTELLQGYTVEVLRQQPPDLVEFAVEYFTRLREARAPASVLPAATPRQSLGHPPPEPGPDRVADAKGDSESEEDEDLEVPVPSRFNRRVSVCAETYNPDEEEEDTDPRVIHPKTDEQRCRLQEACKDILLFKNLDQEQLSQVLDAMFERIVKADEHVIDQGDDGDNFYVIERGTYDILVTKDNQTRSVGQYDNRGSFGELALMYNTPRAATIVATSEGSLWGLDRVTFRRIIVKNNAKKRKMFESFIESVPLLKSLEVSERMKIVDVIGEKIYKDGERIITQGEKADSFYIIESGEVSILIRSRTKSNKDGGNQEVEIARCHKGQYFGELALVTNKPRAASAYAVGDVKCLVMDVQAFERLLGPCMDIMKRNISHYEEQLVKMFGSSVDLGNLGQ
UniProt P31323: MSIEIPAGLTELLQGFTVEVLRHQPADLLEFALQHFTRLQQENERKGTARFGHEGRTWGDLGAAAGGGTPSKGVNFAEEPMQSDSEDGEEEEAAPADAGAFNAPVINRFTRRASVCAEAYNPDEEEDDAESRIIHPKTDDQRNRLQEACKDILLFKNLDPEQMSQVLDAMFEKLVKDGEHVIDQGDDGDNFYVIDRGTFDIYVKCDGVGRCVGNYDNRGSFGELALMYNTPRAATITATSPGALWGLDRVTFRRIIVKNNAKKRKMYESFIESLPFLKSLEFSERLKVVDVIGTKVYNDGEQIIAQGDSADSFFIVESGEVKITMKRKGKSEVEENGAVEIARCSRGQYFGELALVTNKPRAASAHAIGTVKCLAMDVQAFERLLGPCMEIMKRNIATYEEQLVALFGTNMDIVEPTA

Tests used:
PKA RIIα-Flag = PKA RIIα-Flag (UniProt P13861); assay: co-IP; PKA regulatory subunit-Flag and HA-ZNF185 (or its deletion mutant, or HA-mZfp185) overexpressed in HEK293T cells; lysates on anti-FLAG M2 affinity gel for 1 h at 4 °C; blots
PKA RIIβ-Flag = PKA RIIβ-Flag (UniProt P31323); assay: as above
[1] = target: T1, Myc-ZNF185 C-terminal fragment (aa 501–689) (human) (UniProt O15231); assay: co-IP; PKA RIIα-Flag and Myc-ZNF185 fragments overexpressed in HEK293T cells; lysates on anti-c-Myc magnetic beads for 1 h at 4 °C; blots
T1 sequence: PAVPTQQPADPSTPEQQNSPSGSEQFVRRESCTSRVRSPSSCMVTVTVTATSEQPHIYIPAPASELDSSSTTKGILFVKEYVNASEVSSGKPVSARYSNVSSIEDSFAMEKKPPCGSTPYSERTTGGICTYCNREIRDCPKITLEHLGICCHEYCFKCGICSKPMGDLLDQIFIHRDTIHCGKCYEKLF

| binding (PKA RIIα-Flag) | binding (PKA RIIβ-Flag) | binding [1] | Substance |
| --- | --- | --- | --- |
| binds | binds |  | HA-ZNF185 (full-length zinc-finger protein 185) (from UniProt O15231-1 1-689) |
|  |  | binds | PKA RIIα-Flag (from UniProt P13861 1-404) |
